# According to the supplement of paper PMC8728848:
# The list shows a part of the results.
# Experiments:
# Assay in all cases: glycan array binding signal (z-score within array); higher = stronger binding
# Conditions in all cases: glycan notation: IUPAC condensed, linker removed
# [1] = target: GlcNAc(b1-3)Gal(b1-4)Glc
# Summary of the method: (§1)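 Arrays were curated from the Consortium for Functional Glycomics database, 3228 in total, and kept only where the protein sequence was available. Binding is expressed as a within-array Z-score. This score was averaged across arrays of the same protein sequence at different concentrations or buffers and across linkers, and negative values can be read as non-binding.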
# [2] = target: GlcNAc(b1-3)Gal(b1-4)GlcNAc
# Summary of the method: as §1
# [3] = target: GlcNAc(b1-3)Gal(b1-4)GlcNAc(b1-2)Man(a1-3)[GlcNAc(b1-3)Gal(b1-4)GlcNAc(b1-2)Man(a1-6)]Man(b1-4)GlcNAc(b1-4)GlcNAc
# Summary of the method: as §1
# [4] = target: GlcNAc(b1-3)Gal(b1-4)GlcNAc(b1-2)Man(a1-3)[GlcNAc(b1-3)Gal(b1-4)GlcNAc(b1-2)Man(a1-6)]Man(b1-4)GlcNAc(b1-4)[Fuc(a1-6)]GlcNAc
# Summary of the method: as §1
# [5] = target: GlcNAc(b1-3)Gal(b1-4)GlcNAc(b1-2)[GlcNAc(b1-3)Gal(b1-4)GlcNAc(b1-6)]Man(a1-6)[GlcNAc(b1-3)Gal(b1-4)GlcNAc(b1-2)Man(a1-3)]Man(b1-4)GlcNAc(b1-4)GlcNAc
# Summary of the method: as §1
# [6] = target: GlcNAc(b1-3)Gal(b1-4)GlcNAc(b1-3)Gal(b1-4)GlcNAc
# Summary of the method: as §1
# [7] = target: GlcNAc(b1-3)Gal(b1-4)GlcNAc(b1-3)Gal(b1-4)GlcNAc(b1-2)Man(a1-3)[GlcNAc(b1-3)Gal(b1-4)GlcNAc(b1-3)Gal(b1-4)GlcNAc(b1-2)Man(a1-6)]Man(b1-4)GlcNAc(b1-4)GlcNAc
# Summary of the method: as §1
# [8] = target: GlcNAc(b1-3)Gal(b1-4)GlcNAc(b1-3)Gal(b1-4)GlcNAc(b1-2)Man(a1-3)[GlcNAc(b1-3)Gal(b1-4)GlcNAc(b1-3)Gal(b1-4)GlcNAc(b1-2)Man(a1-6)]Man(b1-4)GlcNAc(b1-4)[Fuc(a1-6)]GlcNAc
# Summary of the method: as §1
# [9] = target: GlcNAc(b1-3)Gal(b1-4)GlcNAc(b1-3)Gal(b1-4)GlcNAc(b1-2)[GlcNAc(b1-3)Gal(b1-4)GlcNAc(b1-3)Gal(b1-4)GlcNAc(b1-6)]Man(a1-6)[GlcNAc(b1-3)Gal(b1-4)GlcNAc(b1-3)Gal(b1-4)GlcNAc(b1-2)Man(a1-3)]Man(b1-4)GlcNAc(b1-4)[Fuc(a1-6)]GlcNAc
# Summary of the method: as §1
# [10] = target: GlcNAc(b1-3)Gal(b1-4)GlcNAc(b1-3)Gal(b1-4)GlcNAc(b1-3)Gal(b1-4)GlcNAc(b1-2)Man(a1-3)[GlcNAc(b1-3)Gal(b1-4)GlcNAc(b1-3)Gal(b1-4)GlcNAc(b1-3)Gal(b1-4)GlcNAc(b1-2)Man(a1-6)]Man(b1-4)GlcNAc(b1-4)GlcNAc
# Summary of the method: as §1
# [11] = target: GlcNAc(b1-3)Gal(b1-4)GlcNAc(b1-3)Gal(b1-4)GlcNAc(b1-3)Gal(b1-4)GlcNAc(b1-2)Man(a1-3)[GlcNAc(b1-3)Gal(b1-4)GlcNAc(b1-3)Gal(b1-4)GlcNAc(b1-3)Gal(b1-4)GlcNAc(b1-2)Man(a1-6)]Man(b1-4)GlcNAc(b1-4)[Fuc(a1-6)]GlcNAc
# Summary of the method: as §1
# [12] = target: GlcNAc(b1-3)Gal(b1-4)GlcNAc(b1-3)Gal(b1-4)GlcNAc(b1-3)Gal(b1-4)GlcNAc(b1-2)[GlcNAc(b1-3)Gal(b1-4)GlcNAc(b1-3)Gal(b1-4)GlcNAc(b1-3)Gal(b1-4)GlcNAc(b1-6)]Man(a1-6)[GlcNAc(b1-3)Gal(b1-4)GlcNAc(b1-3)Gal(b1-4)GlcNAc(b1-3)Gal(b1-4)GlcNAc(b1-2)Man(a1-3)]Man(b1-4)GlcNAc(b1-4)[Fuc(a1-6)]GlcNAc
# Summary of the method: as §1
# [13] = target: GlcNAc(b1-3)Gal(b1-4)GlcNAc(b1-3)Gal(b1-4)GlcNAc(b1-3)Gal(b1-4)GlcNAc(b1-3)Gal(b1-4)GlcNAc(b1-2)Man(a1-3)[GlcNAc(b1-3)Gal(b1-4)GlcNAc(b1-3)Gal(b1-4)GlcNAc(b1-3)Gal(b1-4)GlcNAc(b1-3)Gal(b1-4)GlcNAc(b1-2)Man(a1-6)]Man(b1-4)GlcNAc(b1-4)GlcNAc
# Summary of the method: as §1
# [14] = target: GlcNAc(b1-3)Gal(b1-4)GlcNAc(b1-3)Gal(b1-4)GlcNAc(b1-3)Gal(b1-4)GlcNAc(b1-3)Gal(b1-4)GlcNAc(b1-2)Man(a1-3)[GlcNAc(b1-3)Gal(b1-4)GlcNAc(b1-3)Gal(b1-4)GlcNAc(b1-3)Gal(b1-4)GlcNAc(b1-3)Gal(b1-4)GlcNAc(b1-2)Man(a1-6)]Man(b1-4)GlcNAc(b1-4)[Fuc(a1-6)]GlcNAc
# Summary of the method: as §1
# [15] = target: GlcNAc(b1-3)Gal(b1-4)GlcNAc(b1-3)Gal(b1-4)GlcNAc(b1-3)Gal(b1-4)GlcNAc(b1-3)Gal(b1-4)GlcNAc(b1-2)[GlcNAc(b1-3)Gal(b1-4)GlcNAc(b1-3)Gal(b1-4)GlcNAc(b1-3)Gal(b1-4)GlcNAc(b1-3)Gal(b1-4)GlcNAc(b1-6)]Man(a1-6)[GlcNAc(b1-3)Gal(b1-4)GlcNAc(b1-3)Gal(b1-4)GlcNAc(b1-3)Gal(b1-4)GlcNAc(b1-3)Gal(b1-4)GlcNAc(b1-2)Man(a1-3)]Man(b1-4)GlcNAc(b1-4)[Fuc(a1-6)]GlcNAc
# Summary of the method: as §1
# [16] = target: GlcNAc(b1-3)Gal(b1-4)GlcNAc(b1-3)Gal(b1-4)GlcNAc(b1-3)GalNAc
# Summary of the method: as §1
# [17] = target: GlcNAc(b1-3)Gal(b1-4)GlcNAc(b1-3)GalNAc
# Summary of the method: as §1
# [18] = target: GlcNAc(b1-3)Gal(b1-4)GlcNAc(b1-3)[GlcNAc(b1-3)Gal(b1-4)GlcNAc(b1-3)]GalNAc
# Summary of the method: as §1
# [19] = target: GlcNAc(b1-3)Gal(b1-4)GlcNAc(b1-6)[Gal(b1-3)]GalNAc
# Summary of the method: as §1
# [20] = target: GlcNAc(b1-3)Gal(b1-4)GlcNAc(b1-6)[GlcNAc(b1-3)Gal(b1-3)]GalNAc
# Summary of the method: as §1
# [21] = target: GlcNAc(b1-3)Gal(b1-4)GlcNAc(b1-6)[GlcNAc(b1-3)]Gal(b1-4)GlcNAc
# Summary of the method: as §1
# [22] = target: GlcNAc(b1-3)GalNAc
# Summary of the method: as §1
# [23] = target: GlcNAc(b1-3)Man
# Summary of the method: as §1
# [24] = target: GlcNAc(b1-3)[GlcNAc(b1-4)][GlcNAc(b1-6)]GlcNAc
# Summary of the method: as §1
# [25] = target: GlcNAc(b1-3)[GlcNAc(b1-6)]Gal(b1-4)GlcNAc
# Summary of the method: as §1
# [26] = target: GlcNAc(b1-3)[GlcNAc(b1-6)]GalNAc
# Summary of the method: as §1
# [27] = target: GlcNAc(b1-4)Gal(b1-4)GlcNAc
# Summary of the method: as §1
# [28] = target: GlcNAc(b1-4)GlcNAc
# Summary of the method: as §1
# [29] = target: GlcNAc(b1-4)GlcNAc(b1-4)GlcNAc
# Summary of the method: as §1
# [30] = target: GlcNAc(b1-4)GlcNAc(b1-4)GlcNAc(b1-4)GlcNAc(b1-4)GlcNAc
# Summary of the method: as §1
# [31] = target: GlcNAc(b1-4)GlcNAc(b1-4)GlcNAc(b1-4)GlcNAc(b1-4)GlcNAc(b1-4)GlcNAc
# Summary of the method: as §1
# [32] = target: GlcNAc(b1-4)[GlcNAc(b1-6)]GalNAc
# Summary of the method: as §1
# [33] = target: GlcNAc(b1-6)Gal(b1-4)GlcNAc
# Summary of the method: as §1
# [34] = target: GlcNAc(b1-6)GalNAc
# Summary of the method: as §1
# [35] = target: GlcNAc6S(b1-3)Gal(b1-4)GlcNAc
# Summary of the method: as §1
# [36] = target: Kdn(a2-3)Gal(b1-3)GalNAc
# Summary of the method: as §1
# [37] = target: Kdn(a2-3)Gal(b1-3)GlcNAc
# Summary of the method: as §1
# [38] = target: Kdn(a2-3)Gal(b1-4)Glc
# Summary of the method: as §1
# [39] = target: Kdn(a2-3)Gal(b1-4)GlcNAc
# Summary of the method: as §1
# [40] = target: Kdn(a2-3)Gal(b1-4)[Fuc(a1-3)]GlcNAc
# Summary of the method: as §1
# [41] = target: Kdn(a2-6)Gal(b1-4)GlcNAc
# Summary of the method: as §1
# [42] = target: Man(a1-2)Man(a1-2)Man(a1-3)Man
# Summary of the method: as §1
# [43] = target: Man(a1-2)Man(a1-2)Man(a1-6)[Man(a1-3)]Man
# Summary of the method: as §1
# [44] = target: Man(a1-2)Man(a1-3)Man
# Summary of the method: as §1
# [45] = target: Man(a1-2)Man(a1-3)[Man(a1-2)Man(a1-6)]Man
# Summary of the method: as §1
binder,measurement,setting,value
"ECL (Erythrina cristagalli), Q6YD91 (protein) VETISFSFSEFEPGNNDLTLQGAAIITQSGVLQLTKINQNGMPAWDSTGRTLYTKPVHIWDMTTGTVASFETRFSFSIEQPYTRPLPADGLVFFMGPTKSKPAQGYGYLGVFNNSKQDNSYQTLAVEFDTFSNPWDPPQVPHIGIDVNSIRSIKTQPFQLDNGQVANVVIKYDASSKILLAVLVYPSSGAIYTIAEIVDVKQVLPEWVDVGLSGATGAQRDAAETHDVYSWSFHASLPETND",glycan array binding signal (z-score),[1],-0.388
same,glycan array binding signal (z-score),[2],-0.329
same,glycan array binding signal (z-score),[3],-0.29
same,glycan array binding signal (z-score),[4],0.141
same,glycan array binding signal (z-score),[5],0.514
same,glycan array binding signal (z-score),[6],-0.007
same,glycan array binding signal (z-score),[7],0.644
same,glycan array binding signal (z-score),[8],0.117
same,glycan array binding signal (z-score),[9],0.14
same,glycan array binding signal (z-score),[10],0.006
same,glycan array binding signal (z-score),[11],0.001
same,glycan array binding signal (z-score),[12],0.113
same,glycan array binding signal (z-score),[13],-0.023
same,glycan array binding signal (z-score),[14],-0.323
same,glycan array binding signal (z-score),[15],-0.342
same,glycan array binding signal (z-score),[16],-0.046
same,glycan array binding signal (z-score),[17],-0.257
same,glycan array binding signal (z-score),[18],-0.36
same,glycan array binding signal (z-score),[19],-0.235
same,glycan array binding signal (z-score),[20],-0.345
same,glycan array binding signal (z-score),[21],-0.2
same,glycan array binding signal (z-score),[22],-0.196
same,glycan array binding signal (z-score),[23],-0.121
same,glycan array binding signal (z-score),[24],-0.03
same,glycan array binding signal (z-score),[25],-0.162
same,glycan array binding signal (z-score),[26],-0.163
same,glycan array binding signal (z-score),[27],-0.303
same,glycan array binding signal (z-score),[28],-0.254
same,glycan array binding signal (z-score),[29],-0.165
same,glycan array binding signal (z-score),[30],-0.232
same,glycan array binding signal (z-score),[31],-0.146
same,glycan array binding signal (z-score),[32],-0.281
same,glycan array binding signal (z-score),[33],-0.23
same,glycan array binding signal (z-score),[34],-0.312
same,glycan array binding signal (z-score),[35],-0.102
same,glycan array binding signal (z-score),[36],-0.266
same,glycan array binding signal (z-score),[37],-0.227
same,glycan array binding signal (z-score),[38],-0.182
same,glycan array binding signal (z-score),[39],-0.326
same,glycan array binding signal (z-score),[40],-0.054
same,glycan array binding signal (z-score),[41],-0.261
same,glycan array binding signal (z-score),[42],-0.137
same,glycan array binding signal (z-score),[43],-0.188
same,glycan array binding signal (z-score),[44],-0.327
same,glycan array binding signal (z-score),[45],-0.232
